Among all 310,000 compounds or so, about 2,200 (0.71%) showed an effect of 50% or more. Effects have a minus sign here. The list shows a part of the results.
What follows are compounds tested against human ether-à-go-go-related gene (hERG) potassium channel (human, UniProt Q12809) (assay: primary screen, population patch clamp on CHO cells stably expressing hERG).
human ether-à-go-go-related gene (hERG) potassium channel, sequence (Q12809 whole entry, looked up): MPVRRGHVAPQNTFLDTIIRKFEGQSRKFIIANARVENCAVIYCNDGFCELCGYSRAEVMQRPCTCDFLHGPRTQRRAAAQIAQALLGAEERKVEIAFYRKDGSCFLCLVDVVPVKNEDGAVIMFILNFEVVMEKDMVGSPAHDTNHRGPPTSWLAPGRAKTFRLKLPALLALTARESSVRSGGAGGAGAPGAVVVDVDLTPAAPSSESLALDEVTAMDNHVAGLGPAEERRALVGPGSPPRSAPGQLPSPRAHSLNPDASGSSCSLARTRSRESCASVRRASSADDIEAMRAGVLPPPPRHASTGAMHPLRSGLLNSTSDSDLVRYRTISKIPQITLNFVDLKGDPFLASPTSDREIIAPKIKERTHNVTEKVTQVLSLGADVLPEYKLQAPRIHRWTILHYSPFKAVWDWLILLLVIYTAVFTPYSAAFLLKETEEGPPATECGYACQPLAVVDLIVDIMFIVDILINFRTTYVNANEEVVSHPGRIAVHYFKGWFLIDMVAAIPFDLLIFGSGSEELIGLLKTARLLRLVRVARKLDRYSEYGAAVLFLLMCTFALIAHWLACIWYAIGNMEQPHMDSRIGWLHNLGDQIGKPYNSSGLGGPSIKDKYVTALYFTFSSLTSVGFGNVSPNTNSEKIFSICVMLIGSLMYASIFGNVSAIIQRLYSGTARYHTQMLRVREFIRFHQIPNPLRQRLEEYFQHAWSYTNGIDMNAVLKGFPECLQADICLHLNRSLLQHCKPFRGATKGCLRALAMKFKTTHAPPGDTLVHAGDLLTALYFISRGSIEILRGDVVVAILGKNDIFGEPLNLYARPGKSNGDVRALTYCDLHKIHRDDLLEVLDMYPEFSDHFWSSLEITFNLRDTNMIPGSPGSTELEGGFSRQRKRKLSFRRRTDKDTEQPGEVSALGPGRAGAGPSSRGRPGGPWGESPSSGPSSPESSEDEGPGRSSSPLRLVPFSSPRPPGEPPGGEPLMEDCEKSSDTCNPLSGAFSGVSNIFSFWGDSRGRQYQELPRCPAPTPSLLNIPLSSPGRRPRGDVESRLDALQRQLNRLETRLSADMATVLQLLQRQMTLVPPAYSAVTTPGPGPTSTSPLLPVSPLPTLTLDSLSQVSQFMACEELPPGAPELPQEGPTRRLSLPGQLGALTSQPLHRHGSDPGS

Question: With COc1ccc(S(=O)(=O)N2CCCCC2)cc1NC(=O)CCc1nc2ccccc2c(=O)[nH]1 as the compound, how does the “hERG current change (%, negative = inhibition) at 1uM” value read?
Answer: Its value is 5.73%.

Question: COC(=O)/C=C/c1ccc2c(c1)S(=O)(=O)N(Cc1ccc(OC)cc1)[C@H]2CC(=O)OC was tested. Which “hERG current change (%, negative = inhibition) at 1uM” value did it give?
Answer: The value was -16.2%.

Question: CCOc1cc(/C=C2/NC(=S)NC2=O)ccc1OCc1ccc([N+](=O)[O-])cc1 was tested. Which “hERG current change (%, negative = inhibition) at 1uM” value did it give?
Answer: Its value is 9.83%.

Question: For CCC(=O)N1c2ccccc2C(N(C(C)=O)c2ccccc2)CC1C (stereo not shown), which “hERG current change (%, negative = inhibition) at 1uM” value is on record?
Answer: The value was 8%.

Question: For CCOC(=O)C1=CC(=C2C(=O)N(CC)C(=S)N(CC)C2=O)c2ccccc2O1, which “hERG current change (%, negative = inhibition) at 1uM” value is on record?
Answer: Its value is 14.6%.

Question: COCCNC(=O)CN(C(=O)CCC(=O)Nc1cc(C)on1)c1ccccc1C was tested. Which “hERG current change (%, negative = inhibition) at 1uM” value did it give?
Answer: Its value is 9.19%.

Question: For O=C(CSc1n[nH]c(=O)[nH]c1=O)c1ccc([N+](=O)[O-])cc1, which “hERG current change (%, negative = inhibition) at 1uM” value is on record?
Answer: The value was 3.43%.

Question: With O=C(CCc1ccccn1)N1CCCC(Nc2cccc(F)c2)C1 (stereo not shown) as the compound, how does the “hERG current change (%, negative = inhibition) at 1uM” value read?
Answer: Its value is 7.11%.

Question: How did the “hERG current change (%, negative = inhibition) at 1uM” value turn out when CC(C)(O)C#Cc1ccc(C(=O)NCc2ccccc2)s1 was run?
Answer: The value was -2.9%.

Question: CC1(C)Cc2nc(Cl)c(C(=O)O)cc2CO1 was tested. Which “hERG current change (%, negative = inhibition) at 1uM” value did it give?
Answer: Its value is 19.3%.

Question: With CCC(C)C(=O)Nc1nnc(SCC(=O)Nc2ccc(F)cc2)s1 (stereo not shown) as the compound, how does the “hERG current change (%, negative = inhibition) at 1uM” value read?
Answer: Its value is 15.2%.

Question: For CC1=C(C(=O)N2CCOCC2)C(c2ccccc2F)NC(=O)N1 (stereo not shown), which “hERG current change (%, negative = inhibition) at 1uM” value is on record?
Answer: The value was 10.3%.

Question: How did the “hERG current change (%, negative = inhibition) at 1uM” value turn out when Cc1ccc(S(=O)(=O)N(CC(=O)N2CCOCC2)c2ccc(Br)cc2)cc1 was run?
Answer: The value was 1.29%.

Question: How did the “hERG current change (%, negative = inhibition) at 1uM” value turn out when O=C(NCCC1=CCCCC1)c1ccc(Cl)cc1 was run?
Answer: The value was 9.37%.

Question: With COc1ccc(C(F)(F)F)cc1N/C=C\c1nnnn1-c1ccccc1 as the compound, how does the “hERG current change (%, negative = inhibition) at 1uM” value read?
Answer: Its value is 14.5%.

Question: With Cc1ccc(N2CC(C(=O)Nc3ccc(S(=O)(=O)N4CCCC4)cc3)CC2=O)cc1 (stereo not shown) as the compound, how does the “hERG current change (%, negative = inhibition) at 1uM” value read?
Answer: The value was -1.52%.

Question: With COc1ccc2c(c1)N(C)/C(=C1/SC(=NCc3ccccc3)N(c3ccccc3)C1=O)S2 as the compound, how does the “hERG current change (%, negative = inhibition) at 1uM” value read?
Answer: The value was 13.4%.

Question: How did the “hERG current change (%, negative = inhibition) at 1uM” value turn out when NS(=O)(=O)c1ccc(NC(=O)Cn2nc(C(=O)O)c3ccccc3c2=O)cc1 was run?
Answer: The value was 19.2%.

Question: Which “hERG current change (%, negative = inhibition) at 1uM” value does the source give for CC1(C)COC(c2cccn2Cc2ccccc2Cl)=N1 here?
Answer: Its value is 5.92%.

Question: For O=C(CCS(=O)(=O)Cc1ccccc1)NC1CCCCC1, which “hERG current change (%, negative = inhibition) at 1uM” value is on record?
Answer: Its value is -1.57%.

Question: Which “hERG current change (%, negative = inhibition) at 1uM” value does the source give for COC(=O)C1=C(c2ccc(F)cc2F)C[C@@H]2CC[C@H]1N2C(=O)N1CCC(O)(c2ccc(Cl)cc2)CC1 here?
Answer: Its value is 15.2%.

Question: For COC(=O)CN1C(=O)[C@H]2[C@@H](c3ccc(C)o3)N3C(=O)CN(Cc4ccc(-c5ccccc5)cc4)C(=O)[C@@]3(C)[C@H]2C1=O, which “hERG current change (%, negative = inhibition) at 1uM” value is on record?
Answer: The value was 0.0123%.

Question: With CC(C)=CCC12CN3CCN(CC(C3)C1=O)C2 as the compound, how does the “hERG current change (%, negative = inhibition) at 1uM” value read?
Answer: Its value is 3.95%.

Question: CCN(CC)c1ccc(C(=O)NNC(=O)CCc2nc3ccccc3c(=O)[nH]2)cc1 was tested. Which “hERG current change (%, negative = inhibition) at 1uM” value did it give?
Answer: Its value is 9.53%.

Question: With COc1cc(NC(=O)c2ccccc2)ccc1NC(=O)c1cc2ccccc2o1 as the compound, how does the “hERG current change (%, negative = inhibition) at 1uM” value read?
Answer: Its value is 9.27%.

Question: O=c1cccc2n1CC1CC2CN(c2ncnc3c2cnn3-c2ccccc2)C1 (stereo not shown) was tested. Which “hERG current change (%, negative = inhibition) at 1uM” value did it give?
Answer: Its value is -7.14%.

Question: How did the “hERG current change (%, negative = inhibition) at 1uM” value turn out when CCOc1ccc2[nH]cc(C(=O)N3CCN(CC)CC3)c(=O)c2c1 was run?
Answer: Its value is -5.48%.

Question: How did the “hERG current change (%, negative = inhibition) at 1uM” value turn out when CNC(=O)CN(c1cc(C)ccc1C)S(C)(=O)=O was run?
Answer: Its value is 2.83%.

Question: O=C(COc1ccc(Br)cc1)N/N=C1\SCC(=O)N1c1ccc(F)cc1 was tested. Which “hERG current change (%, negative = inhibition) at 1uM” value did it give?
Answer: The value was 3.05%.

Question: With Cc1cccc(-n2ncc3c2CCCC3NC(=O)CCN2CCCO2)c1C (stereo not shown) as the compound, how does the “hERG current change (%, negative = inhibition) at 1uM” value read?
Answer: Its value is 16.2%.

Question: CCN(CC)CCn1c2ccccc2c2nc(C)sc21 was tested. Which “hERG current change (%, negative = inhibition) at 1uM” value did it give?
Answer: The value was -11.8%.

Question: Which “hERG current change (%, negative = inhibition) at 1uM” value does the source give for Fc1ccccc1CNc1ccc(Cl)c(Cl)c1 here?
Answer: The value was 11.7%.

Question: How did the “hERG current change (%, negative = inhibition) at 1uM” value turn out when CNS(=O)(=O)c1ccc(NC(=O)C2c3ccccc3Oc3ccccc32)cc1 was run?
Answer: The value was 5.58%.

Question: Which “hERG current change (%, negative = inhibition) at 1uM” value does the source give for COc1ccc(NC(=O)NCc2ccc3c(c2)OCO3)cc1OC here?
Answer: The value was 8.27%.

Question: For N#C/C(=C\c1ccc(O)c(O)c1)S(=O)(=O)c1ccccc1, which “hERG current change (%, negative = inhibition) at 1uM” value is on record?
Answer: The value was 7.28%.

Question: With COc1ccccc1C(=O)N(Cc1sccc1C)C1CCS(=O)(=O)C1 (stereo not shown) as the compound, how does the “hERG current change (%, negative = inhibition) at 1uM” value read?
Answer: The value was 21.6%.

Question: With Cn1c(SCC(=O)Nc2ccc3c(c2)OCO3)nnc1-c1cnccn1 as the compound, how does the “hERG current change (%, negative = inhibition) at 1uM” value read?
Answer: Its value is 4.37%.

Question: Which “hERG current change (%, negative = inhibition) at 1uM” value does the source give for COc1cc2cc(C)c(SCC(=O)N3CCN(C(=O)c4ccco4)CC3)nc2cc1OC here?
Answer: Its value is -30.1%.

Question: How did the “hERG current change (%, negative = inhibition) at 1uM” value turn out when CCc1ccccc1-n1nnnc1SCC(=O)Nc1cc(C)on1 was run?
Answer: The value was 11.5%.

Question: How did the “hERG current change (%, negative = inhibition) at 1uM” value turn out when Cc1nc(C)c(C(=O)OCC(=O)Nc2ccccc2SCC#N)s1 was run?
Answer: Its value is 3.08%.

Question: For COc1cc(NC(=O)CSc2nc3[nH]ncc3c(=O)n2-c2ccccc2C)cc(OC)c1OC, which “hERG current change (%, negative = inhibition) at 1uM” value is on record?
Answer: Its value is 15.7%.

Question: With COc1ccc(CCNc2c([N+](=O)[O-])c(=O)oc3ccccc23)cc1OC as the compound, how does the “hERG current change (%, negative = inhibition) at 1uM” value read?
Answer: Its value is 0.298%.

Question: Which “hERG current change (%, negative = inhibition) at 1uM” value does the source give for Cc1ccc(C(=O)CCC(=O)OCC(=O)Nc2ccc3[nH]c(=O)[nH]c3c2)cc1 here?
Answer: The value was 18.3%.

Question: With O=C(CC(c1ccccc1)c1cc(Br)ccc1O)N1CCCC1 (stereo not shown) as the compound, how does the “hERG current change (%, negative = inhibition) at 1uM” value read?
Answer: Its value is -6.76%.

Question: O=C(Nc1nnc(-c2ccco2)o1)c1ccc(Cl)cc1 was tested. Which “hERG current change (%, negative = inhibition) at 1uM” value did it give?
Answer: Its value is -13.6%.

Question: How did the “hERG current change (%, negative = inhibition) at 1uM” value turn out when COc1ccc(NC(=O)CCCCCN2C(=O)CCC2=O)cc1Cl was run?
Answer: The value was 4.52%.

Question: For N#CCc1ccc(OC(=O)c2cnccc2C(F)(F)F)cc1, which “hERG current change (%, negative = inhibition) at 1uM” value is on record?
Answer: The value was 17.4%.

Question: How did the “hERG current change (%, negative = inhibition) at 1uM” value turn out when COc1ccccc1N1CC(C(=O)OCC(=O)c2ccc(F)cc2)CC1=O (stereo not shown) was run?
Answer: Its value is 16.2%.

Question: Which “hERG current change (%, negative = inhibition) at 1uM” value does the source give for Cc1ccc(NS(=O)(=O)c2c(C)[nH]c(=O)[nH]c2=O)c(C)c1 here?
Answer: Its value is 20%.

Question: For CCn1c(C)nnc1SCC(=O)NC1CCCCCC1, which “hERG current change (%, negative = inhibition) at 1uM” value is on record?
Answer: The value was 6.57%.

Question: Which “hERG current change (%, negative = inhibition) at 1uM” value does the source give for CCCOc1cccc(C2C(C(=O)c3ccco3)=C(O)C(=O)N2c2nnc(C)s2)c1 (stereo not shown) here?
Answer: Its value is 8.62%.

Question: CC12CC(NC(=O)N1c1cccc(C(=O)NCc3ccccn3)c1)c1ccccc1O2 (stereo not shown) was tested. Which “hERG current change (%, negative = inhibition) at 1uM” value did it give?
Answer: The value was 12.5%.

Question: With Cc1sc(NC(=O)CS(=O)(=O)c2ccccc2)c(C(N)=O)c1C as the compound, how does the “hERG current change (%, negative = inhibition) at 1uM” value read?
Answer: The value was -2.73%.

Question: With COC(=O)CCc1c(C)c(C(=O)c2ccc(F)cc2)c2ccccn12 as the compound, how does the “hERG current change (%, negative = inhibition) at 1uM” value read?
Answer: The value was 14.1%.

Question: CCSc1nnc(Cc2cc(=O)[nH]c(=O)[nH]2)n1-c1ccc(F)cc1 was tested. Which “hERG current change (%, negative = inhibition) at 1uM” value did it give?
Answer: Its value is 10.1%.
